Some of the results follow.
System: T1, Caupolican (Caup) homeodomain DNA-binding domain
T1 sequence: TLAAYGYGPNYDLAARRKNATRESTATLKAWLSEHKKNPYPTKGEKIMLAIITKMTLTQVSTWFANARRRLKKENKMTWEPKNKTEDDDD
Experiment: PBM E-score (8-mer, recovered from the published 9-mer minima) (E-score (dimensionless, -0.5 to 0.5)); Drosophila protein; higher = stronger relative binding preference, active = 0.31 or more
How it was run: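 Caup's homeodomain DNA-binding domain (residues 214-303) was made by in vitro transcription and translation and applied at 100 nM to custom-designed protein binding microarrays. Each value is an enrichment score that gives relative binding preference for a short DNA word, with higher meaning stronger. The 8-mer values were recovered from published 9-mer scores, each of which was the minimum of its two constituent 8-mer scores. A cutoff of 0.31 marks candidate sites.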

Sequence	PBM E-score
CGGCTTGA	inactive: -0.103
TAAACAAA	inactive: 0.175
CAACGCCC	inactive: -0.102
CTTTGGAA	inactive: -0.0259
CGGATATA	inactive: 0.108
CCGACAGG	inactive: -0.0128
ATCGCGTG	inactive: 0.0811
CAATACAG	inactive: 0.0839
CTACAATC	inactive: 0.229
AAATTCGC	inactive: 0.021
CCTTAATC	inactive: -0.125
CGCTGCTC	inactive: -0.118
GGGCATCA	inactive: -0.164
AACGGCGA	inactive: -0.0202
ACTGAACC	inactive: -0.0558
CTGATGTC	inactive: 0.212
AGCTCCGC	inactive: -0.162
ACTAACGC	inactive: 0.00731
AACAAGAC	active: 0.335
CGGTACAC	inactive: 0.189
GACTGATA	inactive: 0.114
AATGGTGC	inactive: -0.0422
AGGGGGGA	inactive: -0.33
AATATCTG	inactive: 0.0768
TAGTTCCA	≥ 0.0606
CACTGGGA	inactive: -0.0122

Sequence	PBM E-score
ACGTATCT	inactive: -0.0369
CCAATGCC	inactive: -0.222
ATCGATTA	≥ 0.231
GCACTACA	inactive: 0.176
CGTAGCCC	inactive: -0.098
AAGGGCCT	inactive: -0.148
AATGTTGG	inactive: 0.115
GAAACCGC	inactive: 0.00449
ATTTAACG	inactive: 0.113
AGAGTCGC	inactive: -0.111
AATGGACG	≥ 0.144
GAGCGTCC	inactive: -0.119
GGGGCTGA	inactive: -0.121
ATGACACC	inactive: 0.266
ACTCCTAG	inactive: -0.00703
AGCATTCG	inactive: -0.0396
CCAGTAGA	inactive: -0.0183
CTAGAAGC	inactive: -0.125
ATCATAAC	inactive: 0.156
GGATCTTA	inactive: -0.096
AGTAGAAC	inactive: 0.0123
AGGATGCC	≥ -0.00785
ACAGATTA	inactive: 0.0959
AGAAGCTG	inactive: -0.0418
ACCTTAGA	inactive: -0.0802
GGTTAACA	inactive: 0.192

Sequence	PBM E-score
CCCGGCTA	inactive: -0.141
CAACCCTC	inactive: -0.0608
ATTGCTGC	inactive: -0.0356
CAGGGCCG	inactive: -0.204
AGTATAAC	inactive: 0.091
CGGAGTCA	inactive: -0.0798
TCGTTCAA	inactive: 0.0359
GAATCCCA	inactive: 0.0261
CCTGGCAC	inactive: -0.115
AATTAGTG	inactive: 0.202
CTATTAAA	inactive: 0.0453
CAGGTCTC	inactive: -0.15
TATCCCGA	inactive: 0.0808
AGGTTTAG	inactive: 0.00358
AACAATTC	inactive: 0.19
ATTGTCCA	inactive: 0.1
ATCTTAAC	inactive: 0.176
CAAAAAGC	inactive: -0.0694
CGCGCGGC	inactive: -0.232
ACTCGTCC	inactive: -0.0489
GAGCACAA	inactive: 0.039
CAAATTTA	inactive: 0.105
CATGCGAC	inactive: 0.0863
AATTGGAG	inactive: 0.00807
GCAAGCAA	inactive: -0.0127
CCGCCGCC	inactive: -0.259

Sequence	PBM E-score
GAAAAGCA	inactive: -0.0579
CACCAGAC	inactive: -0.05
GATCGTGC	inactive: -0.00242
CTTCGAAG	inactive: -0.132
ATGCTTAC	inactive: 0.043
GCACTGGC	inactive: -0.127
AACGGTAG	inactive: -0.0755
GGTTTTAC	inactive: 0.0559
CCTTCCGA	inactive: -0.162
CCCGCGCA	inactive: -0.182
TGACGACA	inactive: 0.24
TACAGACA	inactive: 0.288
TACATTCA	inactive: 0.232
CCACCGCA	inactive: -0.145
GCAGCATA	inactive: 0.0377
AGTTTCAT	inactive: 0.0389
ACGCAAAA	inactive: 0.0611
CCCCTACA	inactive: 0.0519
AACAAAGC	inactive: 0.0791
CGCCTCGA	inactive: -0.165
ATCCTCAG	≥ 0.0194
CCCCGGCC	inactive: -0.278
CATAACCG	inactive: 0.0434
AAGGAAGT	inactive: -0.00485
ATCTTGTG	inactive: 0.18
CCTCTATC	inactive: -0.0252

Sequence	PBM E-score
AAGCGGTA	inactive: 0.021
ACGCGAGG	inactive: -0.0393
AAGATAAA	inactive: 0.145
AGTGTCAT	inactive: 0.246
TCTCCCAA	inactive: -0.111
ATGTTTAG	inactive: 0.284
AGGATTTA	inactive: 0.0456
CAGCGTGA	inactive: -0.0005
AGGACCGA	inactive: -0.117
GCTTCACC	inactive: -0.177
CTCATCAG	inactive: 0.0649
ACATTCCC	inactive: 0.112
GACGAAAC	inactive: -0.026
TATTCAAA	inactive: 0.134
ATACCCAC	inactive: 0.00559
ATTCGACG	inactive: -0.023
AGTGTGGA	inactive: 0.0098
GGTGCGCA	inactive: -0.176
ACTATGGC	inactive: 0.0196
AGGTTTGC	inactive: -0.0341
AGTCGACT	≥ 0.0996
ACTTGGAG	inactive: 0.0132
GCGCGCGA	inactive: -0.113
ACAGATGT	≥ 0.253
